The text below walks through data of PMC7819943, “Rice protein-binding microarrays: a tool to detect cis-acting elements near promoter regions in rice”.

The list shows a part of the results.

For the assay, the target named is T1, OsWOX13 (Oryza sativa, UniProt Q5QMM3 1-267).
T1 sequence: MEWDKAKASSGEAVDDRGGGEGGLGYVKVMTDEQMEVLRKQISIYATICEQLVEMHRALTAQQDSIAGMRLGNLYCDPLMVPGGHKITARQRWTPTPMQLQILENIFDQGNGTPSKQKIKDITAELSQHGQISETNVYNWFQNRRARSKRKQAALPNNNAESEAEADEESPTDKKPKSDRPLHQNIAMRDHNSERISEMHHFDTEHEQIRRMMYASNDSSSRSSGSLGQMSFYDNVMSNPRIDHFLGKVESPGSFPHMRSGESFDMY
In words: protein-binding microarray (RPBM); PBS, 2% BSA, 51.3 ng/ul salmon testes DNA, 50 uM zinc acetate, 200 nM TF, 25 C, 1 h; high values mean tight binding. As to conditions: protein: recombinant; tags: N-terminal polyhistidine and DsRed monomer fusion (pET32a); label: CyDye5-dUTP incorporated in the synthesized complementary strand; 3' TTTTT single-stranded linker to array surface; dsDNA, one strand shown. The procedure, abridged: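 Polyhistidine-tagged DsRed fusions of transcription factors, joined at the N-terminus, were expressed in E. coli BL21-CodonPlus and isolated on Ni–NTA. They were incubated at 200 nM for 1 h at 25 °C on a custom Agilent array, double-stranded and BSA-blocked, in PBS with 2% BSA, salmon testes DNA and 50 µM zinc acetate. The binding signal is per-feature fluorescence intensity (arbitrary units) read on an Axon 4000B scanner after washing.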
Take “GCCCAGATTGATTCGGAAGCAATGGTTTACGATCCAATTCCGGAGTCACCTAGTGCAG”: the binding signal is 29600 fluorescence intensity (a.u.).
Take “ATGTCTGTCTGTCTAGATTTATTAACATATATATGAATTTCGGAGTCACCTAGTGCAG”: the binding signal is 4200 fluorescence intensity (a.u.).
Regarding “ATGATGATGGGAACCATATGAGTTATTAGTGTAGTACTCCCGGAGTCACCTAGTGCAG”, the binding signal was 4180 fluorescence intensity (a.u.).
As to “GGAATTGACGCACGAAAATTTTGTGACGAAAGGAAAATTTCGGAGTCACCTAGTGCAG”, the binding signal is 3800 fluorescence intensity (a.u.).
On to “CATAACAAAATTTTAAACACCACTAAATAAGATACTCGCGCGGAGTCACCTAGTGCAG”, for which the binding signal was 5230 fluorescence intensity (a.u.).
For “GGGATGATTTTGTAACTCGATAACAAGTTGAGGGACCTTTCGGAGTCACCTAGTGCAG” the value was 17200 fluorescence intensity (a.u.); for “CCTGACAGGTCATCTCCTGATTGAAACCAAAATGTTGGATCGGAGTCACCTAGTGCAG”, 60700 fluorescence intensity (a.u.); for “TCTGACATAATGTTCATTCGAAGGAAAATATTTTCTTCCTCGGAGTCACCTAGTGCAG”, 8340 fluorescence intensity (a.u.).
On to “CATGTGCTAATGACAGGTTAATTAGGCTCAAAAGATTCATCGGAGTCACCTAGTGCAG”, for which the binding signal was 12600 fluorescence intensity (a.u.).
Then “CTTCTAATTGTTAAGTAGATGGTCGTTGTCATTGATTCTTCGGAGTCACCTAGTGCAG”, with 15100 fluorescence intensity (a.u.); and “CGTAATAATGAATTGAATGCAGAGTTTGGTCAAAGAAAAGCGGAGTCACCTAGTGCAG”, with 6400 fluorescence intensity (a.u.).
For “TCCTCGATTGATCCGTTTCTTTATATACACACAGTACAACCGGAGTCACCTAGTGCAG”, the binding signal was 9160 fluorescence intensity (a.u.).
Consider “TCAAATTGAAATTTTAGTACTTAATTAGGATCAATATACACGGAGTCACCTAGTGCAG”, for which the binding signal was 30800 fluorescence intensity (a.u.).
Consider “TACTTATCAACCAAAATTTAAATTTTCAACCTTAAATTTACGGAGTCACCTAGTGCAG”, for which the binding signal is 6860 fluorescence intensity (a.u.).
Regarding “ATTACCGATACTGACAATTATCAATACCGACTGAAACGGTCGGAGTCACCTAGTGCAG”, the binding signal is 4280 fluorescence intensity (a.u.).
With “ATTACATTGACTAATAGATGATTTAGAGCTAATAGTGGGCCGGAGTCACCTAGTGCAG”, the binding signal was 25200 fluorescence intensity (a.u.).
As to “AAGGCAAATTGACGGTACAAAGTTCAACACGCTAATTAGTCGGAGTCACCTAGTGCAG”, the binding signal is 31900 fluorescence intensity (a.u.).
For “TCCAATCATTTTGTGTCTTGTAGGTGATCCATTCTTTCTTCGGAGTCACCTAGTGCAG”, the binding signal was 7000 fluorescence intensity (a.u.).
On to “AATATATCCAATTATTGATTTGATTAAACTAATTTAGTATCGGAGTCACCTAGTGCAG”, for which the binding signal was 41900 fluorescence intensity (a.u.).
As to “TGACTTGATTTAACATCAAGGGCCTATTCAGATTATAGAACGGAGTCACCTAGTGCAG”, the binding signal is 19500 fluorescence intensity (a.u.).
“ACTAATAATTGGCCTTAATCAGCTAGTACAATTCTATCACCGGAGTCACCTAGTGCAG”: the binding signal was 26800 fluorescence intensity (a.u.).
Consider “CCACAAATTTCGGTCAAACTAATTACATAGTATTAATATCCGGAGTCACCTAGTGCAG”, for which the binding signal was 4360 fluorescence intensity (a.u.).
On to “TTATAATTACTACATTATAATAAAAGTAAAATTGTATTTACGGAGTCACCTAGTGCAG”, for which the binding signal is 12100 fluorescence intensity (a.u.).
For “ATAGATTTGAATAGATCTTTCTTCATATTTATATAGTATCCGGAGTCACCTAGTGCAG” the value was 5170 fluorescence intensity (a.u.).
Take “TTTGGTTCATATCATAATTATGGCTCGTCACATTTCCTCTCGGAGTCACCTAGTGCAG”: the binding signal was 8410 fluorescence intensity (a.u.).
For “ATGCTGCAATTAATTGAGGAGGAAAGCTCCCATTAGCAATCGGAGTCACCTAGTGCAG” the value was 19200 fluorescence intensity (a.u.); for “GTTAATTTGTCAAATTTCATGCGAGAGAGAGAGAGAGAGACGGAGTCACCTAGTGCAG”, 16800 fluorescence intensity (a.u.).
For “GAAGTCAAATTTAGCCAATCTCTGGGAGAGATTATTATTTCGGAGTCACCTAGTGCAG”, the binding signal was 4490 fluorescence intensity (a.u.).
Take “CCATTCATCATCACGTGCAATTAACCAACCCATCCGCGCCCGGAGTCACCTAGTGCAG”: the binding signal was 8540 fluorescence intensity (a.u.).
For the sequence “TTAGTAATTAGCCATTGCCCATGCAACCTAAACCAAAACACGGAGTCACCTAGTGCAG”, the binding signal was 6580 fluorescence intensity (a.u.).
In the case of “AGTAGATTTAGTTCTGTTTTATTTATTGATACTTGCCGATCGGAGTCACCTAGTGCAG”, the binding signal was 5250 fluorescence intensity (a.u.).
For “CTTCGATTGAACAATTAGGTTTGCGCTTGCTTGCCCAAGACGGAGTCACCTAGTGCAG”, the binding signal is 17600 fluorescence intensity (a.u.).
In the case of “AATATGTCATCTTATGATTATAATTATATGCCAATCCAACCGGAGTCACCTAGTGCAG”, the binding signal was 17600 fluorescence intensity (a.u.).
In the case of “GACTAAATCAAGTTTAAACAACTTCATTCAAAATTATTCACGGAGTCACCTAGTGCAG”, the binding signal is 4880 fluorescence intensity (a.u.).
“AAATTAGTAATTTATAGTTTAAAATGGGCCATTTTATATGCGGAGTCACCTAGTGCAG”: the binding signal was 15900 fluorescence intensity (a.u.).
As to “CACGTTTAACATAATTTTAGAATTTCAATATAGTTTTGTGCGGAGTCACCTAGTGCAG”, the binding signal was 6790 fluorescence intensity (a.u.).
Consider “TTAAAATTTATATTTACTAAAAGTTCCGTCAAACAGTTTACGGAGTCACCTAGTGCAG”, for which the binding signal is 4040 fluorescence intensity (a.u.).
On to “GCAAATGGATTGTACAACTATGGAAGGGGCAGGTTCGAGGCGGAGTCACCTAGTGCAG”, for which the binding signal was 5170 fluorescence intensity (a.u.).
For the sequence “TAGCATATGATTAATGGAGTATTAATCTCTACTATTATAACGGAGTCACCTAGTGCAG”, the binding signal was 3970 fluorescence intensity (a.u.).
In the case of “GTATTTATTAATTTCAAATTTCTGAACTATTAAAACAAGACGGAGTCACCTAGTGCAG”, the binding signal was 4380 fluorescence intensity (a.u.).
Turning to “CTAATATGTAAATTTGACAACCTCATCTAAGGCACTATTACGGAGTCACCTAGTGCAG”, the binding signal is 4670 fluorescence intensity (a.u.).
With “TACGAATGATGGGGTGATTAGTCCTTATATTTATACACCGCGGAGTCACCTAGTGCAG”, the binding signal is 11600 fluorescence intensity (a.u.).
